# Measurements from PubChem BioAssay AID1347073 (National Center for Advancing Translational Sciences (NCATS), 2019).
# Out of some 45,000 compounds screened, about 200 (0.44%) were called active. Roughly 7% stayed inconclusive and do not appear here. Calls follow the shape of the dose curve; as a rule, active = well fitted activation curve with a large enough effect; inconclusive = small, poorly fitted or top-dose-only effect; inactive = no such curve, though single readings can be large or run the other way. Some of the results follow.
# Assay: qHTS of TDP-43 Inhibitors: NCGC Sytravon Library Screen; also: 0% is about no effect; nearly all actives have a fitted effect of over 55% in size
# Settings: yeast TDP-43 toxicity rescue, BacTiter-Glo growth, 24 h; series mostly up to 46.1 µM; growth rescue (activation): at the top concentration
# How it was run: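 TDP-43-expressing yeast, pregrown in raffinose, seeded at OD600 0.02 in galactose medium with compound for 24 hr at 30 deg C. Growth read by BacTiter-Glo luminescence, so rescue of toxicity appears as activation.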
row,Structure (SMILES),growth rescue (activation)
1,O=C(Nc1cccnc1)c1cccc(-c2cc3ccccc3oc2=O)c1,inactive: 1.9%
2,CCOc1ccc(NC(=O)CNC(=O)c2nn(-c3ccc(OC)c(OC)c3)c(=O)c3ccccc23)cc1,inactive: -0.23%
3,O=C(NC1CC1)C1CCN(C2CCN(C(=O)Cc3ccc4c(c3)OCO4)CC2)CC1,inactive: 8.97%
4,Cc1nccn1-c1ccc(C=O)cc1,inactive: -3.48%
5,CCOc1cc(C(=O)Nc2ccc(S(=O)(=O)Nc3onc(C)c3C)cc2)cc(OCC)c1OCC,inactive: 5.72%
6,CCOc1ccc(Br)cc1S(=O)(=O)N1CCC(C(=O)O)CC1,inactive: 15.8%
7,Cc1ccc(-c2nc(C#N)c(N3CCC(C(N)=O)CC3)o2)cc1,inactive: 1.31%
8,CC(C)[C@H](NS(=O)(=O)c1cccc(C(F)(F)F)c1)C(=O)OCC(=O)NC(=O)NCc1ccco1,inactive: 30.4%
9,CCN1CCC(NC(=O)Nc2cc(Cl)ccc2OC)CC1,inactive: 0.945%
10,O=[N+]([O-])c1ccc(Oc2ccc(/C=N/O)cc2)nc1,inactive: 29.6%
11,CCN(CC)CCN1CCN(c2cncc(-c3ccc4ccccc4c3)n2)CC1,inactive: -0.865%
12,c1csc(-c2nc(NCC3CCCO3)c3ccccc3n2)c1 (stereo not given),inactive: 5.57%
13,CCOc1ccc(NC(=O)C2C(c3ccccc3)C2(Cl)Cl)cc1 (stereo not given),inactive: 8.96%
14,C#CCOc1ccc(Cl)cc1/C=C1/C(=O)ON=C1C,inactive: -13.9%
15,CC(NC(=O)Cn1cccc1C(=O)c1ccccc1)c1ccc2c(c1)OCCO2 (stereo not given),inactive: 16.3%
16,CC1(C(=O)NS(=O)(=O)c2cccc(C#N)c2)CCN1C(=O)CC1CCCC1 (stereo not given),inactive: 12.5%
17,CC(=O)Nc1ccc(C2(c3ccc(NC(C)=O)cc3)C(=O)Nc3ccccc32)cc1,inactive: 2.83%
18,COc1ccc(NS(=O)(=O)c2ccc3nc(COc4ccc(Cl)c(C)c4)[nH]c3c2)cc1,inactive: -4.02%
19,Cc1ccc(NC(=O)Cc2nnc(SCC(=O)NC3CCCC3)n2C)cc1,inactive: 0.569%
20,COC(=O)c1c(NC(=O)COC(=O)CNC(=O)C2CCCCC2)sc(C)c1C,inactive: 14%
21,O=C(Nc1ccc(S(=O)(=O)N2CCCC2)cc1)c1ccc(CN2CCOCC2)cc1,inactive: 14.7%
22,CN1CCN(c2nc3c(c(=O)n(C)c(=O)n3C)n2CCSc2nnnn2-c2ccccc2)CC1,inactive: -8.67%

row,Structure (SMILES),growth rescue (activation)
1,CC(=O)Nc1ccc(Nc2nc(C)c([N+](=O)[O-])c(Nc3ccccc3)n2)cc1,inactive: -20.9%
2,CCN1C(=O)/C(=C/c2nc3ccccc3c(=O)n2-c2ccccc2)c2ccccc21,inactive: -16.8%
3,Cc1ccc(C(OCC(O)CNC(CO)C(O)c2ccc([N+](=O)[O-])cc2)c2ccccc2)cc1 (stereo not given),inactive: 7.55%
4,O=C(O)CC1S/C(=N\N=C2CCCCCC2)N(c2ccccc2)C1=O (stereo not given),inactive: -36.2%
5,COc1ccccc1C(=O)NC1CCCc2ccccc21 (stereo not given),inactive: 4.09%
6,O=C(COC(=O)c1ccc(Cl)nc1)Nc1ccc(S(=O)(=O)N2CCCC2)cc1,inactive: -1.12%
7,C(=N\Nc1ccccn1)/c1c[nH]c2ccccc12,inactive: 4%
8,COC(=O)c1ccc(CSc2nnc(-c3ccccc3)n2C)o1,inactive: 13.4%
9,CC(=O)Nc1cccc(-c2ccnc3c2CC(C(=O)Nc2cccc(NS(C)(=O)=O)c2)O3)c1 (stereo not given),inactive: 11.9%
10,Cc1sc(NC(=O)CCC(=O)O)c(C#N)c1C,inactive: 9.36%
11,COc1ccc(CCNC(=O)CNC(=O)c2ccco2)cc1,inactive: 0.974%
12,C[C@@H](N)C(=O)N[C@H]1CCC2C3CC=C4C[C@@H](O)CC[C@]4(C)C3CC[C@@]21C (stereo not given in full),inactive: -0.616%
13,CCOc1cc(C(=O)OCC(=O)NCc2ccco2)cc(OCC)c1OCC,inactive: 22.9%
14,C=C(C)Cn1c2ccc(NC(=S)NCc3ccccc3F)cc2c(=O)n1C,inactive: 6.06%
15,CCOC(=O)N1CCC(N2CCCC(C(=O)c3cccc(OC(C)C)c3)C2)CC1 (stereo not given),inactive: -6.67%
16,Cc1ccc(NP(=O)(c2ccc(N(C)C)cc2NC(=O)c2cccs2)N2CCOCC2)cc1Cl (stereo not given),inactive: 10.2%
17,O=C(O)Cn1nnc(-c2ccc(OCc3ccccc3Cl)cc2)n1,inactive: 23.9%
18,CCOc1ccc(/C=C/C(=O)Nc2cccc(C(C)=O)c2)cc1,inactive: 27.2%
19,CC1CCN(c2ccc(C(=O)Nc3nnc(C4CC4)s3)cc2[N+](=O)[O-])CC1,inactive: 1.71%
20,Cc1cc(C)c(C)c(S(=O)(=O)Nc2ccccc2C(=O)O)c1C,inactive: 5.73%
21,O=C(Nc1nnc2n1CCS2)c1ccco1,inactive: -1.25%
22,COc1ccc(COC(=O)Nc2c(SC)nsc2SC)cc1,inactive: 18.9%

row,Structure (SMILES),growth rescue (activation)
1,CCCOc1cccc(C2/C(=C(/O)c3ccccc3)C(=O)C(=O)N2CCN(C)C)c1 (stereo not given),inactive: 32.5%
2,CC(=O)Nc1ccc(NC2=C(Cl)C(=O)c3ccccc3C2=O)cc1,inactive: 2.97%
3,CCC(C)(C)NC(=O)C(c1ccc(F)cc1)N(Cc1ccccc1)C(=O)c1cnccn1 (stereo not given),inactive: -18.8%
4,CC1Oc2ccccc2N(CC(=O)NC2CCCCC2)C1=O (stereo not given),inactive: 0.945%
5,Cc1coc2cc3oc(=O)c(CC(=O)N(C)CC(=O)O)c(C)c3cc12,inactive: 3.63%
6,CCCc1cc(=O)[nH]c(SCCCCN2C(=O)c3ccccc3C2=O)n1,inactive: 5.93%
7,O=C(NCc1cc(Cl)cc(Cl)c1)c1ccc2sc([C@H]3C[C@H](O)[C@@H](CO)O3)nc2c1,inactive: 14.8%
8,COc1ccc(-c2nnc(Nc3ccc(S(=O)(=O)Nc4nccs4)cc3)c3ccccc23)cc1,inactive: 0.919%
9,COc1ccc(OC)c(S(=O)(=O)Nc2c(C)n(C)n(-c3ccccc3)c2=O)c1,inactive: -7.08%
10,CN1C(=O)[C@@H]2[C@@H]3C[C@@H]([C@H]4ON=C(c5ccc(Cl)cc5Cl)[C@@H]34)[C@@H]2C1=O,inactive: 26.9%
11,Cc1ccc2nc(SCC(=O)Nc3ccc(F)cc3F)[nH]c2c1,inactive: 1.39%
12,COc1cc(NC(=S)NCCCN2CCOCC2)cc(OC)c1,inactive: 9.34%
13,CC1CCCCC1NC(=O)C1CCN(c2c3c(nc4ncnn24)CCC3)CC1 (stereo not given),inactive: -3.25%
14,Cc1ccc(C)c(Cn2c(CCCNC(=O)C3CCCCC3)nc3ccccc32)c1,inactive: 0.546%
15,Cc1cccc(NC(=S)NCCN2CCOCC2)c1C,inactive: 4.74%
16,Cc1cc(C(=O)N2CCCC(C(=O)c3ccc4ccccc4c3)C2)n(C)n1 (stereo not given),inactive: 8.77%
17,COc1ccc(C)cc1NC(=O)C(Sc1nnc(-c2cccs2)o1)c1ccccc1 (stereo not given),inactive: 10.6%
18,Cc1ccc(NC(=O)C(=O)NCC2CCN(C(=O)c3cccc([N+](=O)[O-])c3)CC2)cc1,inactive: -4.24%
19,Cc1cccc(-n2cc3c(=O)n(C)c(=O)n(C)c3c2)c1,inactive: -4.54%
20,O=C(CN1C(=O)NC2(CCc3ccccc32)C1=O)NCCc1ccccc1 (stereo not given),inactive: 28.7%
21,Cc1ccccc1S(=O)(=O)NC(=O)C1(C)CCN1C(=O)CC1CCCC1 (stereo not given),inactive: 11.4%
